From the supplement of paper PMC3334620
In all, about 33,000 sequences were measured (“E-score (-0.5 to 0.5)”: median about -0.054, highest 2% from about 0.35 on). The list shows a part of the results.

The sequences below were run against T1, Stb5 (UniProt P38699) (assay: PBM E-score (8-mer binding enrichment) (E-score (-0.5 to 0.5)); higher = stronger / more preferred TF binding; most listed sequences are background and not binding sites). Conditions: protein concentration: 200 nM; construct: GST-full length.
T1 sequence: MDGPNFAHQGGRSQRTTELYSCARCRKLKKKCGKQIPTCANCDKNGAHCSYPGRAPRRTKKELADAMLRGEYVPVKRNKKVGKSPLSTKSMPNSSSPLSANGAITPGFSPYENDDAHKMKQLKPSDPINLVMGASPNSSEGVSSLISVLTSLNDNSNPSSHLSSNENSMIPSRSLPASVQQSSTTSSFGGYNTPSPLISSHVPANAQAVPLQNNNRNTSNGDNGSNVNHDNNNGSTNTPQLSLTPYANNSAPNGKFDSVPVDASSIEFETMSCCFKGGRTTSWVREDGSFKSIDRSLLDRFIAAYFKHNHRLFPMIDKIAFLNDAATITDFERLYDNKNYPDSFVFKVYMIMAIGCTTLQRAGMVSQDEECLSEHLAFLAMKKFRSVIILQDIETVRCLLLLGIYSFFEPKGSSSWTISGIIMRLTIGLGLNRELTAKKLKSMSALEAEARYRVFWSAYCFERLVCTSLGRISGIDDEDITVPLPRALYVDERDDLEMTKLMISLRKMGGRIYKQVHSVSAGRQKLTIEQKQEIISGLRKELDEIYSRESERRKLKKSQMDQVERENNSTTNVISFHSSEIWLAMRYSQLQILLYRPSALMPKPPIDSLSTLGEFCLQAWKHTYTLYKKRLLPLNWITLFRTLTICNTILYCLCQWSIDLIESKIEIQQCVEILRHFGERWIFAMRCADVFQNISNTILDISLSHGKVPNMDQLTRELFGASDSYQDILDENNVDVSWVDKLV
Summary of the method: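 Bound GST-tagged yeast transcription factors, applied at about 100-200 nM to double-stranded universal all-10-mer Agilent arrays, were detected with fluorescent anti-GST. Scans were normalised with masliner. A modified Wilcoxon-Mann-Whitney statistic, the E-score, was assigned to each ungapped eight-base word pooled with its reverse complement by the Universal PBM Analysis Suite.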

Sequence	PBM E-score
ATGCACCC	0.0568
CACTCGAC	-0.115
CTGGGAAG	-0.184
AAAGGGCC	-0.0038
TCATTTCA	-0.109
CAAATGTC	-0.0119
CTGAGAAC	-0.127
ATTGGCGC	-0.0479
ACTTAAGC	0.134
CGGGACGA	0.164
AAAAAGAG	-0.258
GCGAATAA	0.00672
AGACCGAG	0.177
AAGTCCAG	-0.133
CCAGGGCC	0.0327
GGAATGGA	-0.121
ACGATAAG	-0.0682
AATTCTAC	-0.289
GCTTGCAA	-0.0391
TAATCTCA	-0.151
ACGGGCTA	0.146
CTTCTGAA	-0.0858
CCGCGACG	0.303
ACATGGCG	0.0157
AAGTTAAA	-0.143

Sequence	PBM E-score
ATAGGTAG	-0.258
ACTAAAAC	0.129
TACGAAAA	-0.253
AGCTGTCC	-0.237
GGGTGTCA	-0.073
TACGCCTA	-0.211
AGAGTTTG	-0.0532
CGTCACCA	-0.0795
AAACCTGC	-0.198
CCCCGACC	0.355
AATAATGC	0.108
CGGCAACA	0.332
TAGAGCGA	-0.0549
CGGAGCAA	0.316
CGGATCTA	0.424
CTCTTACA	-0.239
ATGTAAAC	0.171
ACTCCCGC	0.253
ACACGCCA	-0.155
GTTCGCCA	-0.209
AAAGGACT	-0.0879
GCCCGCAA	0.152
CATCAAAA	-0.153
AAACTAAG	-0.114
ACAGATAT	-0.123

Sequence	PBM E-score
ACGTTTCG	-0.0366
ATCATCAT	-0.158
GAATAGGA	-0.132
CCCCTCCC	0.0118
TAAAAGTA	0.0185
AATCAAGA	0.0435
ATGGCCCA	-0.167
GATTTCAA	0.034
TGATAAAA	0.0867
ATGATTAG	-0.0345
ATAGGACG	-0.0892
AGCCACCT	-0.316
GGCTACCA	-0.267
CGTTACGA	0.0335
GCCGTGAC	0.142
GCATGCGA	0.0292
GGTTCTGA	-0.0576
ATCGACTC	-0.204
AGTCATCA	-0.186
AGCCCAAC	-0.183
CGTCGCAG	0.0811
ACGTAACC	-0.0823
GGACATTA	0.338
GGATGGTA	-0.118
CAATGATG	-0.192

Sequence	PBM E-score
CCCGGTGA	0.261
ACTGACCG	0.115
CATCTTGA	-0.0443
GGAGATAC	0.32
CTTCCCGA	0.0298
CGTGACAA	-0.0215
GGGACGAA	0.107
CAGGGCGA	-0.0756
ATCTTGAG	-0.162
AACGCATT	-0.0528
AGTGTGCC	-0.0438
CGGGGGTA	0.451
CCCGAAAA	0.248
AGGCTAAT	-0.0423
CACGCTTA	-0.149
AATGCTGT	-0.0756
GCCTGCCA	-0.271
CATGTACC	-0.0343
ACTGTAAA	-0.106
AAACCAAA	-0.0629
ATGGGTAG	-0.221
CATAAGAC	0.131
TGACCGAA	0.0381
ACCCGGAG	0.246
GCCGACAC	0.239

Sequence	PBM E-score
GAGGATTA	-0.122
CTTCGATA	0.0184
GAACTTGC	-0.124
GGCAGTAA	0.256
GCAGCACA	-0.17
CTATCGAG	-0.186
CCGTACTC	0.0597
GGTCACCA	-0.378
GCCGCCTA	0.139
AGTTATCG	0.195
CGTGGGGC	0.0662
AAGCTAAT	-0.016
ACCAACAT	-0.0205
CTGTGTAC	-0.00391
CCAGCGAA	-0.194
CAGGTGAA	-0.236
CAGATCCA	-0.0305
CCAAAACC	-0.0249
GTCAACAA	-0.169
AGCCAGCC	-0.347
AAATAGTA	0.00695
ACTGTCTG	-0.128
ATCCGCGA	0.168
AAGGTATA	-0.0982
ACCAATGG	-0.0752

Sequence	PBM E-score
TAAGCGCA	-0.215
CACCCACC	0.044
CCCCAGAA	-0.111
CCCAGAGC	-0.176
GGCATACA	-0.0504
ACAGTCAC	-0.224
TAAGTTGA	-0.124
ACTTCCCT	-0.2
CAGGCGTA	-0.0661
GAGTGCCC	-0.146
GGTTCACA	-0.138
GGCGATGA	0.0312
CGGCCAGC	0.0393
AGCCCGAG	0.05
AGAGCTCT	-0.0693
ACCAGCAC	-0.2
CCAAGCCG	-0.056
CGAACTTA	0.084
CGACGTGC	0.106
ATCGTCTA	-0.235
AAGGAGTA	-0.147
CCTCGAAA	-0.126
AATTGTCG	0.0562
TATGGCCA	-0.203
AGTCGACA	-0.336

Sequence	PBM E-score
CTTAACTC	0.0834
CATGTAGC	-0.0248
AAGCGTGC	-0.171
TCTTTGCA	-0.0517
ATGACCCG	-0.0494
GCATACGA	-0.191
CCGCAGAA	0.241
CGTTTTCC	-0.096
CTCAGGTC	0.0107
CATGACCC	-0.00641
CTCAACCC	-0.0727
GCCACCAC	-0.185
CACTTGCC	-0.0434
ATTTATGG	-0.0167
GGAACAGA	-0.104
CTGCCTAA	-0.258
CGTAGCAG	0.0285
GGACTTCA	0.225
ACTTGGCA	-0.12
AGCCTATG	-0.163
GTTCTCAA	0.0107
CGACGCAC	0.187
GATGGACC	-0.0251
ACTTCGCG	-0.00615
ACTACAAG	-0.0704

Sequence	PBM E-score
AATACTCG	-0.102
CGTCTGTC	-0.0153
CTACAAGA	-0.116
CGCTTTCA	0.00451
GACATGAA	-0.114
CGCGCACG	0.118
CTCTAACC	-0.098
CAGCTCCG	0.136
CTTCTAAC	0.0168
AACTATAA	0.164
TAAGCCTA	-0.155
ACTCCCAC	-0.0914
GATGGCCA	-0.25
GTGCGTTA	0.0777
TGATACAA	-0.0289
ACCATTCT	-0.263
GACAGGAA	-0.0429
CACCCTGA	-0.243
CGATCCGA	0.176
CTGCGCAA	0.117
CAAAACAC	-0.00658
TAACTACA	-0.0813
CACCCTCC	0.0839
CTGTATGA	-0.0297
ACGTAGAG	-0.116

Sequence	PBM E-score
AAACCTTC	-0.155
AACGAGCT	-0.246
CCTCAGCG	0.0495
CCAGTAGC	0.143
GATTGTTA	0.0723
ATGAACTG	-0.305
AGTGGAAG	-0.124
CCCGACTC	0.33
AGCTACTG	-0.0614
TGATTACA	-0.0389
TAACGCCA	0.099
ATGCCTAG	0.0293
CAACCTCC	0.124
ATCAAGAA	-0.292
AGTATCCA	0.0226
ACCCCTAT	0.0068
AAGATGAA	-0.273
GTCAACGA	-0.189
CGACCTGC	0.181
CGATGTGC	0.042
CAGTGTGA	-0.254
ATCGCCAA	-0.162
GGGTCGCA	0.0989
ACCATGCG	-0.0973
ATGTCCTC	-0.147

Sequence	PBM E-score
CATTGGTA	0.14
GCTCTTGA	-0.1
CGCCTATC	0.0636
CGTGTGGC	-0.164
AGTCATGG	-0.218
ACTACCAG	0.0101
CTCACACC	0.158
AGAGAATG	-0.367
AATAAAGT	-0.111
CCCTGCTA	-0.129
GCTATGCC	-0.0017
TCTATCAA	-0.231
AACAAGTT	-0.0683
AGTGCAGA	0.0606
AGTACAGC	-0.146
AAAACCGC	0.305
AGGTCGTA	-0.087
ACTCCTCA	-0.218
ATACAATC	0.0508
AAACTCCA	-0.032
ACGACTAG	-0.194
CATGGCGC	0.18
CACGACGC	0.0771
ACGGGGCG	0.298
CGCCCGCC	0.258

Sequence	PBM E-score
CGCATCCG	0.103
AGATTTGC	-0.159
ATCCATTA	-0.0357
ATACATCG	0.0992
AACGCATG	-0.164
ACTGACTG	-0.314
TAATACTA	-0.0352
AACGGACA	0.298
AGGCGTAC	-0.073
ACGGAGCC	0.263
CCTAATGC	-0.0249
CTGATAAC	-0.0704
ATCTAAAA	-0.0858
CGCACTCC	0.1
AATTTTTC	-0.0701
ACCCGAAT	0.0962
CTAGTTTC	-0.0182
GAACCGCC	0.187
TCCCCGGA	0.203
CGTTCGCC	0.0418
CAGGGGAA	-0.281
CGTAAGGC	-0.0819
ACCTCGGC	0.164
ACAGTGCC	-0.00196
GACTTAGC	0.0466

Sequence	PBM E-score
ACTTGTAG	-0.0788
GAAAATTC	0.112
TCCTCGAA	-0.126
ATCCGCAC	0.124
CCATAAAG	-0.242
AGACGCAT	-0.0918
ATCTTGCC	0.0208
GGATACAC	-0.0245
CACAATCA	-0.158
TTACCCAA	-0.176
ACCACACT	0.0353
CGGTATCC	0.211
CTGAGGGC	-0.225
ATAAATAT	0.208
GACGAAGA	-0.0443
ATAATTGA	-0.142
TAGCTTGA	-0.0773
CCCTCGCG	-0.00053
TAGTGCGA	-0.277
ATCCCTCC	0.0425
CGTGTAAC	0.134
TCGCACCA	-0.0304
CGCACGGA	0.249
GAGATTAC	0.109
CTACACCC	-0.111

Sequence	PBM E-score
CGGTCGCC	0.109
GCGGCCAC	0.069
AGCTACCC	-0.161
CAGACATG	-0.136
ATTATGCC	0.228
ACAACCGA	0.191
CGACCGTC	0.0903
AGCGCGCG	0.0328
AATTCACT	0.0151
ATTGAAGA	-0.31
ATCCTCAC	-0.104
ACAGTCCT	-0.246
AAACCTCG	0.063
AGTGAGAA	-0.104
GCTCGCTA	-0.0566
AGTACCAT	-0.112
ATAGGAGG	-0.0657
TGGAATAA	-0.14
AGGGTACC	-0.132
GCGACATA	-0.0427
AAGATGGC	-0.0292
AATTCACC	0.19
GATATCCC	0.251
GATATGCA	-0.0266
CAATGTGC	-0.0848

Sequence	PBM E-score
ACGGATCC	0.211
ATGATCGA	-0.215
GTCTGGAA	-0.16
GACGTTAC	-0.0216
AAGGAGCG	0.0316
CAACTTAA	-0.0583
CCTGTGCG	0.00639
CGATGTTA	0.197
AGTAGAAA	0.0506
CACTTACC	0.139
GAAGTAAC	0.0534
TGCCATAA	-0.114
CGGGGAAA	0.385
GTGCAACA	-0.135
TACCCTAA	-0.108
AGGTTTAT	0.166
GTGTGATA	0.0767
AAACTGAT	-0.104
GTAACAAC	0.0449
